These results are taken from PMC4336329 (PLoS ONE, 2015).

Each structure is given as a SMILES string. About 2,200 (0.71%) of roughly 310,000 compounds showed an effect of 50% or more. Effects have a minus sign here. Some of the results follow.

For the experiment, the target named is human ether-à-go-go-related gene (hERG) potassium channel (human, UniProt Q12809). Nature of the experiment: primary screen, population patch clamp on CHO cells stably expressing hERG.
Sequence of human ether-à-go-go-related gene (hERG) potassium channel (Q12809 whole entry, looked up): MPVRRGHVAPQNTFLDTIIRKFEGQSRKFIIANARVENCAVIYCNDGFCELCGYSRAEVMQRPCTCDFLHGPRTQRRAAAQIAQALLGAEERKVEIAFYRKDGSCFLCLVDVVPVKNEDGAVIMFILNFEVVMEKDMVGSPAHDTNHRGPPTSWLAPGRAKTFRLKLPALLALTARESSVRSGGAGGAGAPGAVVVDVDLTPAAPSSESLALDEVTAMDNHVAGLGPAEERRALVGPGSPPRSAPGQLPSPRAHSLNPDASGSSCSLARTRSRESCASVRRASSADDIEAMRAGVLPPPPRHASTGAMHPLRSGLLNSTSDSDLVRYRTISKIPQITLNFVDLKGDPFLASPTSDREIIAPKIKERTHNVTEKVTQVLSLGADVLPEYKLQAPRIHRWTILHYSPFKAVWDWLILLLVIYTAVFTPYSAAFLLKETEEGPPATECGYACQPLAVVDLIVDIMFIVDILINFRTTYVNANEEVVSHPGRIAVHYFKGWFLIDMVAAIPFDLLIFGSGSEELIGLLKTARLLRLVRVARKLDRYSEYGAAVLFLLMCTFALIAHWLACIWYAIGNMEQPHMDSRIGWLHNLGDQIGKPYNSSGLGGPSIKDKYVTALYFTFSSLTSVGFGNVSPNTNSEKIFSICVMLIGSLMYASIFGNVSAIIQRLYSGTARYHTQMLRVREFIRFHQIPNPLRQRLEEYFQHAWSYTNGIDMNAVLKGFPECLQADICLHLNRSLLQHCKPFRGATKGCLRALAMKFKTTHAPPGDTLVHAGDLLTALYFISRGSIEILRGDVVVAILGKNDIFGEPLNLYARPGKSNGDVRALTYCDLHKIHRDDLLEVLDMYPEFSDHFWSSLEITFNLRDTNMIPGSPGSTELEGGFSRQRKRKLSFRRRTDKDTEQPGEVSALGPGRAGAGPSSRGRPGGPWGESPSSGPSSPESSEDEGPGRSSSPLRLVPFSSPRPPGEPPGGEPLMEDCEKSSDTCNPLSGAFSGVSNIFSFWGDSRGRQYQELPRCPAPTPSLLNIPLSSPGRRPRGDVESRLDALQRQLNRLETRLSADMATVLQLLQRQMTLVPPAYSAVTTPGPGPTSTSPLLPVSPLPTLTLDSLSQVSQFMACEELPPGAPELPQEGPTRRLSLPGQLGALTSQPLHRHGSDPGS
As for `N#Cc1ccc(OCC(=O)NCC2COc3ccccc3O2)cc1` (stereo not drawn), the “hERG current change (%, negative = inhibition) at 1uM” value is -5.38%.
With `O=S(=O)([O-])Oc1c[nH]c2ccccc12.[K+]`, the “hERG current change (%, negative = inhibition) at 1uM” value was 18.9%.
For the compound `CCOC(=O)N1CCC(NC(=O)CS(=O)Cc2nc(-c3ccc(OC)c(OC)c3)oc2C)CC1` (stereo not drawn), the “hERG current change (%, negative = inhibition) at 1uM” value was 15.6%.
With `CCc1nnc(NC(=O)CSc2nnc(Cc3cccn3C)n2C)s1`, the “hERG current change (%, negative = inhibition) at 1uM” value is reported as 12.8%.
For the compound `Cc1ccc(F)c(NC(=O)CCOc2ccccc2C)c1`, the “hERG current change (%, negative = inhibition) at 1uM” value worked out at 9.97%.
For `CCOC(=O)c1nn(-c2ccccc2Cl)c(=O)cc1OCC(=O)Nc1cccc(OC)c1`, the “hERG current change (%, negative = inhibition) at 1uM” value is given as 17.7%.
On to `CCCCn1c(SCC(=O)Nc2cc(C)on2)nc2ccsc2c1=O`, for which the “hERG current change (%, negative = inhibition) at 1uM” value is given as 8.47%.
As for `COCCn1c(SCC(=O)NC(=O)NCc2ccccc2)nc2ccccc2c1=O`, the figure is 9.92%; as for `CC1CCCCN1S(=O)(=O)c1cccc2nonc12` (stereo not drawn), 3.29%.
For the compound `COc1ccc(C(C(=O)NC2CCCC2)N(CC2CCCO2)C(=O)Cc2cccs2)cc1OC` (stereo not drawn), the “hERG current change (%, negative = inhibition) at 1uM” value is recorded as -0.762%.
As for `Cc1ccc(S(=O)(=O)Nc2ncnc3sc(C)c(C)c23)cc1`, the figure is -0.125%; as for `CCN(CC)CCNC(=O)c1ccc(NC2=NC3CS(=O)(=O)CC3S2)cc1` (stereo not drawn), 12.1%; as for `CC(C)CCNC(=O)C1CC(c2cccc([N+](=O)[O-])c2)=NO1` (stereo not drawn), -5.13%.
As for `Cc1ccc(S(=O)(=O)N2CCOCC2)cc1C(=O)OCC(=O)NCc1ccccc1`, the “hERG current change (%, negative = inhibition) at 1uM” value is listed as 5.03%.
In the case of `Cc1onc(-c2ccccc2)c1C(=O)Nc1ccc(S(=O)(=O)N2CCCC2)cc1`, the “hERG current change (%, negative = inhibition) at 1uM” value turned out to be 5.41%.
In the case of `COc1cc(NC(=S)N2CCN(S(=O)(=O)c3ccccc3)CC2)cc(OC)c1`, the “hERG current change (%, negative = inhibition) at 1uM” value is 13.3%.
As to `CSc1ccccc1C(=O)NC(C)c1ccc(-n2ccnc2)cc1` (stereo not drawn), the “hERG current change (%, negative = inhibition) at 1uM” value is listed as -0.703%.
For the compound `Cc1cc(C)c(C)c(S(=O)(=O)NCCCn2ccnc2)c1C`, the “hERG current change (%, negative = inhibition) at 1uM” value came to 12.9%.
The value for `COc1ccc(C(=O)Nc2ccc(S(=O)(=O)N3CCCCC3C)cc2)c(OC)c1OC` (stereo not drawn) was 3.37%; that for `Cc1ccc(CN2C(=O)N/C(=C\c3ccc(N4CCOCC4)cc3)C2=O)cc1` was 1.93%.
As to `CCCCCCNc1cc(C)oc(=O)c1C(C)=O`, the “hERG current change (%, negative = inhibition) at 1uM” value is -5.57%.
With `O=C(Nc1ccc(C(=O)NC2CCCCC2)cc1)c1cccnc1`, the “hERG current change (%, negative = inhibition) at 1uM” value is reported as 1.66%.
The value for `Cn1c(=O)c(C(=O)COC(=O)c2cc(C(F)(F)F)nc3ccccc23)c(N)n(Cc2ccccc2)c1=O` was 5.2%.
The value for `O=C(COC(=O)Cc1ccccc1)Nc1ccc(SC(F)F)cc1` was 6.9%.
